Data published in PubChem BioAssay AID485294 (National Center for Advancing Translational Sciences (NCATS), 2010).
The whole screen tested about 370,000 compounds, of which about 150 (0.041%) were called active. This list was built around the results that the source calls inconclusive (neither active nor inactive); the mix of calls is not that of the screen. Calls come from the whole dose curve; as a rule, active = well fitted inhibition curve with a large enough effect; inconclusive = small, poorly fitted or top-dose-only effect; inactive = flat fitted curve, though single readings scatter. No potency is given beside an inconclusive call; the fits are too rough.

biological target: Beta-lactamase (Escherichia coli (strain K12)) (UniProt P00811); assay: qHTS Inhibitors of AmpC Beta-Lactamase (assay with detergent); settings: AmpC hydrolysis of nitrocefin, absorbance 480 nm, 0.01% Triton; activity change, negative = inhibition: at 114 µM (top of the series); note: nearly all actives have a fitted effect of over 25% in size;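 for activity change, negative = inhibition: 0% = no-compound wells and -100% = no-enzyme wells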
How it was run: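 20 mM phosphate pH 7.0 + 0.01% (detergent screen) or 0.0001% Triton X-100; 5.3 nM AmpC reagent; cpd preinc 15 min RT; nitrocefin (800 uM stock) to start; A480 q20 s × 4 min; Activity was normalised to no-enzyme and no-compound control wells.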
Potency is the fitted concentration of half-maximal effect; tags give direction and shape of the fitted curve.

UniProt P00811, sequence (P00811 whole entry, looked up): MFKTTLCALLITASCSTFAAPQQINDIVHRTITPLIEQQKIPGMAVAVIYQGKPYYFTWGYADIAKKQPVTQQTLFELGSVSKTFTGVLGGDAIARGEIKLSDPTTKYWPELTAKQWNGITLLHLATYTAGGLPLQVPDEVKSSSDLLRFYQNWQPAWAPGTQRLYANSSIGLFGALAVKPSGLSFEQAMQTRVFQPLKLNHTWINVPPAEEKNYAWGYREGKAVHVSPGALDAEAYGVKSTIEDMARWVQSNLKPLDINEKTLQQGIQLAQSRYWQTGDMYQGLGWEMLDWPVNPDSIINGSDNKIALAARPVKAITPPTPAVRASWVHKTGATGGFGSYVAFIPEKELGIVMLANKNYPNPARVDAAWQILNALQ

| Structure (SMILES) | Potency | activity change, negative = inhibition |
| --- | --- | --- |
| COC(=O)C1C/C(=N\NS(=O)(=O)c2ccc(C)cc2)c2ccsc2C1 (configuration not stated) | inconclusive [inhibitor, full curve, poor fit] |  |
| Cn1nc(CC(=O)NCc2ccc(F)cc2)c2ccccc2c1=O | inconclusive [inhibitor, full curve, poor fit] |  |
| Cc1ccc(NC(=O)Nc2c[nH]c(=O)[nH]c2=O)c(Cl)c1 |  | inactive: 1.93% |
| Cc1ccc(C)c(NC(=O)CN(C)C(=O)c2ccc(-c3ccc(Cl)cc3)o2)c1 |  | inactive: -20.7% |
| CC(=O)NC(Cc1ccccc1C)C(=O)NC1CCN(c2ncccc2[N+](=O)[O-])CC1 (configuration not stated) | inconclusive [inhibitor, full curve, poor fit] |  |
| CCOc1ccc(CNC(=O)c2ccc3[nH]c(C)c(C)c3c2)cc1OC | inconclusive [inhibitor, single point] |  |
| CCc1ccc(NC(=O)N(Cc2c[nH]c3ccccc23)C2CCCCC2)cc1 |  | inactive: 6.17% |
| CCOC(=O)N1CCN(Cc2ccccc2F)CC1 | inconclusive [inhibitor, single point] |  |
| COc1cc(C=O)ccc1OCCSc1ccc(Cl)cc1 |  | inactive: -0.556% |
| CCOc1ccc(/C=N/NC(=O)Cc2cccs2)cc1 |  | inactive: 0.127% |
| C=CCN1C(=O)/C(=C\c2ccc(Oc3nc(N4CCOCC4)nc(N4CCOCC4)n3)c(OC)c2)SC1=S | inconclusive [inhibitor, single point] |  |
| CCc1nnc(NC(=O)CCc2nc(C3=CCN(C)CC3)no2)s1 | inconclusive [inhibitor, full curve, poor fit] |  |
| COc1ccc(CN2CCn3ncc(C(=O)Nc4ccccc4)c3C2=O)cc1 |  | inactive: 10.6% |
| CCc1nnc(NC(=O)c2ccc(-c3cc(C(F)(F)F)ccc3Cl)o2)s1 | inconclusive [inhibitor, full curve, poor fit] |  |
| CN(C)S(=O)(=O)N1CCN(C(=O)c2cccc(Br)c2)CC1 | inconclusive [inhibitor, full curve, poor fit] |  |
| NS(=O)(=O)c1cccc(NC(=O)COC(=O)/C(=C/c2cccs2)c2cccs2)c1 |  | inactive: -8.49% |
| CC(C)(C)NC(=O)C(=O)NC(=O)c1c(F)cccc1Cl | inconclusive [inhibitor, full curve, poor fit] |  |
| CCc1nnc(NC(=O)c2ccc(S(=O)(=O)N3CCCC3)cc2)s1 | inconclusive [inhibitor, partial curve, poor fit] |  |
| COC(=O)Nc1nc(-c2cc(Cl)ccc2Cl)cs1 | inconclusive [inhibitor, full curve] |  |
| CC(C)(C)OC(=O)CNC(=O)c1[nH]cnc1C(=O)NC1CCN(C(=O)OC(C)(C)C)CC1 | inconclusive [inhibitor, partial curve] |  |
| C#CCOCCOCCOCCNc1nc(N2CCN(C(=O)[C@H](CCC(=O)O)n3cc(C(N)Cc4ccc(O)cc4)nn3)CC2)nc(N2CCN(C(=O)[C@H](CCC(=O)O)n3cc(C(N)Cc4ccc(O)cc4)nn3)CC2)n1 (some centres not stated) |  | inactive: 8.52% |

| Structure (SMILES) | Potency | activity change, negative = inhibition |
| --- | --- | --- |
| CCCOc1ccc2[nH]cc(C(=O)O)c(=O)c2c1 | inconclusive [inhibitor, full curve, poor fit] |  |
| CCOc1ccc(CNC(=O)C(CC)n2nc(C)n3c(cc4occc43)c2=O)cc1OC (configuration not stated) | inconclusive [inhibitor, full curve] |  |
| O=S(=O)(c1ccc(Cl)cc1)c1nnn2c1nc(NC1CCCCC1)c1sccc12 |  | inactive: -8.74% |
| COc1ccc(CCC(=O)Nc2ccc(Cn3ccnc3)cc2)cc1 |  | inactive: -12% |
| CCCCOc1ccc(C(=O)Nc2ccc(N3CCN(C(C)=O)CC3)cc2)cc1 | inconclusive [inhibitor, full curve] |  |
| COc1ccccc1CNC(=O)[C@H](C)NC(=O)C1CCN(C(=O)[C@H](CCSC)NC(=O)OC(C)(C)C)CC1 | inconclusive [inhibitor, full curve] |  |
| Cc1cc(=O)oc2cc(OCC(=O)N3CC[C@@]4(O)CCCC[C@H]4C3)ccc12 | inconclusive [inhibitor, full curve, poor fit] |  |
| COCCNc1c2c(c(C#N)c3nc4ccccc4n13)CCCC2 |  | inactive: -5.42% |
| COc1ccc(NC(=O)c2sc3nc4c(cc3c2N)N2CCC4CC2)cc1OC |  | inactive: 8.48% |
| Cc1ccc(-c2nnc(Oc3cccc(C)c3)c3ccccc23)cc1 |  | inactive: -0.479% |
| O=C(NCc1ccc(F)cc1)c1cc2c(cc1Cl)N1CCCCCC1=NS2(=O)=O | inconclusive [inhibitor, partial curve, poor fit] |  |
| CC(C)(C)SC(=O)CC1NS(=O)(=O)OCC1NC(=O)OCC(Cl)(Cl)Cl (configuration not stated) | inconclusive [inhibitor, full curve] |  |
| S=C(NCCc1ccccc1)N1CCN(C(c2ccccc2)c2ccccc2)CC1 | inconclusive [inhibitor, full curve, poor fit] |  |
| Cn1c2c(c(=O)c3ccccc31)CCCC2 | inconclusive [inhibitor, full curve] |  |
| CC1CCN(S(=O)(=O)c2ccc3c(ccc(=O)n3CC(=O)NCc3ccccc3Cl)c2)CC1 |  | inactive: 2.12% |
| O=C(O)C(Cc1ccc(F)cc1)c1ccccc1 (configuration not stated) |  | inactive: -2.81% |
| CC(=O)c1c(C)nc2sc3c(=N)n(N)cnc3c2c1-c1ccc(Cl)cc1 | inconclusive [inhibitor, partial curve] |  |
| O=C(c1ccc(S(=O)(=O)N2CCCCC2)cc1)N1CCN(Cc2ccc3c(c2)OCO3)CC1 |  | inactive: -6.8% |
| CCOc1ccc(S(=O)(=O)N2CCOCC2)cc1NC(=O)C1CSC2(C)CCC(=O)N12 (configuration not stated) | inconclusive [inhibitor, full curve, poor fit] |  |
| C=CCc1cccc([C@@H]2[C@@H](C)CC[C@H]3C(=O)N4[C@@H](c5cc(OC)c(OC)c(OC)c5)c5[nH]c6ccccc6c5C[C@H]4C(=O)N23)c1 | inconclusive [inhibitor, full curve, poor fit] |  |
| COc1ccc(S(=O)(=O)N2CCc3ccccc32)cc1C(=O)O | inconclusive [inhibitor, partial curve, poor fit] |  |
